Source: PubChem BioAssay AID1963451 (Molecular Pharmacology Branch, DTP, NCI, 2024)
For part of its entries the source gives two or more results. This is not the full list of results. The source may hold further records. The values listed for one entry repeat one measurement across runs, samples, wells, individuals or studies. Signs of the kind (2×) stand for listed records that agree.

System: 521955-158-R6-J3-PDC complex spheroid growth, % test/control
Assay: Anticancer human tumor 521955-158-R6-J3-PDC patient-derived pancreatic carcinoma cell line growth inhibition [Asc]
Details: stronger effect = lower value
Protocol: Multicellular complex tumor spheroid response to apoptosis pathway targeting inhibitors Alrizomadlin, Pelcitoclax, and Dasminapant in combination with a variety of drugs and investigational agents in selected tumor cell lines
The MDM2 inhibitor alrizomadlin, the Bcl-2/Bcl-xL inhibitor pelcitoclax, and the IAPs inhibitor dasminapant were evaluated both individually and in combination with standard of care and investigational anticancer small molecules within a complex spheroid model of solid tumors. . Complex spheroids include a stromal component modeled by human endothelial cells (HUVEC) and fibroblasts modeled by human mesenchymal stem cells (MSCs). The concentration ranges selected for each drug and investigational agent were based upon clinically achievable concentrations if the clinical Cmax of the agent was known.
Compounds. The drugs and investigational agents: alrizomadlin (APG-115; NSC831270), pelcitoclax (APG-1252; NSC835773), dasminapant (APG-1387;NSC834197), TAK-243 (NSC785004), copanlisib (NSC809693), olaparib (NSC753686), talazoparib (NSC767125), cobimetinib (NSC 768068), eltanexor (KPT-8602, NSC 794443), abemaciclib (NSC 768073), sotorasib (NSC818433), adagrasib (NSC 831453), MRTX-1133 (NSC 836407), Iadademestat (ORY1001, NSC 806812), and RMC-4630 (NSC839698), were obtained from the NCI Developmental Therapeutics Program Chemical Repository. The FDA-approved anticancer drug set is available from the Developmental Therapeutics Program at https://dtp.cancer.gov/organization/dscb/obtaining/available plates.htm. […] The stock solutions were prepared in dimethyl sulfoxide (DMSO, Sigma-Aldrich, St. Louis, MO, cat. D2650) at 800-fold the tested concentration and stored at -70 degrees C prior to their use. All drugs and investigational agents were tested over a range starting from a high concentration at or near the clinical Cmax and decreasing in half-log increments. If the clinical Cmax for an agent had not been determined, the highest concentration tested was 10 microM.
The patient-derived cancer (PDC) cell lines include five colon adenocarcinomas: 186277-243-T-J2-PDC, 616215-338-R-J1-PDC, 439559-082-T-J2-PDC, 463943-066-T-J2-PDC, and 519858-162-T-J1-PDC; three pancreatic carcinomas: 323965-272-R-J2-PDC, 521955-158-R6-J3-PDC, and 521955-158-R2-J5-PDC; two uterine sarcomas: 327498-152-R-J2-PDC and 993429-296-R-J1-PDC; two rhabdomyosarcomas: 755483-174-R-J1-PDC and 772245-204-R-J1-PDC; two soft tissue sarcomas: 126254-015-R-J1-PDC and 494315-158-R-J1-PDC; two malignant fibrous histiocytomas: 317291-083-R-J1-PDC and 596521-263-R-J1-PDC; two breast carcinomas: 171881-019-R-J1-PDC and 885512-296-R-J2-PDC; and one ovarian carcinoma: 6556581-035-R-J-PDC were obtained from the NCI PDMR, (https://pdmr.cancer.gov). The established cell lines HSSY-2 synovial sarcoma (RRID:CVCL 8719), SYO-1 synovial sarcoma (RRID:CVCL_7146), MPNST malignant peripheral neural sheath tumor were obtained from the Sloan Kettering Institute. The following established cell lines were purchased from the American Type Culture Collection (ATCC, Manassas, VA), Sor the received from the NCI repository:, PANC-1 pancreatic carcinoma (CRL-1469, RRID:CVCL_0480), OVCAR-5 ovarian carcinoma (RRID:CVCL_1628), OVCAR-8 ovarian carcinoma (RRID:CVCL_1629), , MCF-7 breast carcinoma (CRL-12584, RRID:CVCL_0031), MDA-MB-231 breast carcinoma (CRL-12532, RRID:CVCL_0062), NCI-H1876 small cell lung carcinoma (CRL-5902, RRID:CVCL_1503), NCI-H510A small cell lung carcinoma (HTB-184, RRID:CVCL_1565), NCI-H1417 (CRL-5869, RRID:CVCL_1469), and NCI-H196 small cell lung carcinoma (CRL-5823, RRID:CVCL_1509). Dr. Peter Houghton (Greehey Children's Cancer Research Institute, University of Texas Health Science Center, San Antonio, TX) provided Rh-18 rhabdomyosarcoma (RRID:CVCL_1659). Pooled donor human umbilical vein endothelial cells (HUVEC, Lonza, cat. CC-2519) and human mesenchymal stem cells (hMSC, Lonza, cat. PT-2501) were purchased from Lonza (Walkersville, MD).
Cell Culture. […]
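Note: spheroids exposed to compounds for 7 days; 100% = DMSO vehicle control wells.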

Compound | viability, T/C (compound alone 0.00316 µM) | viability, T/C (compound alone 0.01 µM) | viability, T/C (compound alone 0.0316 µM) | viability, T/C (compound alone 0.1 µM) | viability, T/C (compound alone 0.316 µM) | viability, T/C (compound alone 1 µM) | viability, T/C (compound alone 0.00949 µM) | viability, T/C (compound alone 0.03 µM) | viability, T/C (compound alone 0.0949 µM) | viability, T/C (compound alone 0.949 µM) | viability, T/C (compound alone 3 µM)
CNC(C)C(=O)NC1CN(S(=O)(=O)c2cccc(S(=O)(=O)N3CCC4CCC(C(=O)NC(c5ccccc5)c5ccccc5)N4C(=O)C(NC(=O)C(C)NC)C3)c2)CCC2CCC(C(=O)NC(c3ccccc3)c3ccccc3)N2C1=O (stereo unspecified) | 100 (2×), 105, 152, 153, 130, 90.7, 90.3, 85.7% | 88.9, 94.2, 145, 93.3, 71.7, 83.2, 106, 82.9, 90.5% | 92.2, 101, 84.7, 90.8, 70.5, 78.4, 98.9, 80.6, 78.8% | 93.9, 91.5, 86.5, 124, 78.9, 100, 93, 98.9, 87.7% | 104, 86.2, 94.5 (2×), 100, 76.9, 91.3, 95.2, 90% | 80.7, 81.7, 88.7, 96.6, 71.6, 88.4, 103, 87.9, 88.8% |  |  |  |  | 
CCN1C(C(=O)NC23CCC(C(=O)O)(CC2)CC3)C(c2cccc(Cl)c2F)C2(C(=O)Nc3cc(Cl)ccc32)C12CCCCC2 (stereo unspecified) |  |  |  |  |  |  | 95.8, 100, 90, 86.9, 92.5, 106, 105, 108, 82.7% | 101, 96.5, 86.5, 83.2, 89.1, 106, 95.7, 104, 114% | 111, 113, 97.1, 101 (2×), 104, 102, 92.5, 85.4% | 105, 128, 114, 123, 125, 124, 148, 108, 115% | 123, 98.1, 109, 100, 104, 135, 113, 117, 102%
